# Out of some 76,000 compounds screened, about 1,900 (2.5%) were called active. Inconclusive means that the source gave no clear call. Such entries were picked first, then a sample of the others. Calls follow the shape of the dose curve; as a rule, active = well fitted inhibition curve with a large enough effect; inconclusive = small, poorly fitted or top-dose-only effect; inactive = flat fitted curve, though single readings scatter. Potencies beside an inconclusive call are fits to weak or partial responses and may not hold up.
# Target: Luciferin 4-monooxygenase (Photinus pyralis) (UniProt P08659)
# UniProt P08659, sequence (P08659 whole entry, looked up): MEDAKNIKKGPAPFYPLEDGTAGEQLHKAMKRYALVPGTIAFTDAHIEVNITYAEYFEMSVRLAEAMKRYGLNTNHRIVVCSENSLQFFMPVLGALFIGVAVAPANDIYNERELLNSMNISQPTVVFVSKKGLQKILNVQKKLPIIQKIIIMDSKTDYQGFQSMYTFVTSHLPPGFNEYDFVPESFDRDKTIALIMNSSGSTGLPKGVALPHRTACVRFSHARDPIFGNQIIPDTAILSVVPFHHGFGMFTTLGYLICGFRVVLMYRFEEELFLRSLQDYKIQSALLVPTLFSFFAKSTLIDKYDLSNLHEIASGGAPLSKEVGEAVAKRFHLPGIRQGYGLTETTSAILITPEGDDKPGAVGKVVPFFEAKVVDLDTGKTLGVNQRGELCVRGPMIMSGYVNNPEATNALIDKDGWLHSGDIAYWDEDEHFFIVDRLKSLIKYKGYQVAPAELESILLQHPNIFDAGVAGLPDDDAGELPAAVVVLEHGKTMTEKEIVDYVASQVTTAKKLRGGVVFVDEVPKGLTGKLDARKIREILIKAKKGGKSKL
# Assay: Firefly luciferase inhibition profiling of diverse chemical library using quantitative high-throughput screening; also: nearly all actives have a fitted effect of over 65% in size
# Settings: purified P. pyralis luciferase, luminescence, biochemical; series mostly up to 115 µM
# Outline: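 Biochemical qHTS: compound (6-point titration) added to 10uM D-luciferin plus 10uM ATP in Tris acetate pH 7.5 buffer with Mg, Tween-20 and BSA, then purified enzyme at 10nM; light output imaged.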
# Potency is read from the fitted curve at half-maximal effect; tags tell the direction and shape of the fitted curve.
row,SMILES,Potency
1,COc1ccc(-c2cc(N3CCCC(NC(=O)c4ccc5c(c4)OCO5)C3)n[nH]2)cc1 (stereo not given),active: 11.2 µM
2,Cc1cn2nc(C(=O)NCc3ccccc3)cc2c(=O)[nH]1,"inconclusive: 56.2 µM [inhibitor, partial curve]"
3,O=C1CC2(CCN(Cc3cccs3)CC2)Oc2cc(Cl)ccc21,"inconclusive: 44.7 µM [inhibitor, partial curve]"
4,Cc1nn(Cc2ccccc2)c(C)c1[C@@H]1C=C[C@@H](NC(=O)CCC(=O)O)C1,inactive
5,O=C(c1ccc2c(c1)OCO2)N1CCC2(CC1)CC(c1ccccc1)=NO2,inactive
6,CC(C)C[C@@H]1N[C@H](C(=O)N2CCOCC2)Cc2cn(Cc3cccnc3)c3cccc1c23,inactive
7,Cc1ccc(N2CCN(c3nc(C(=O)O)cs3)CC2)cc1,active: 1.41 µM
8,CN(C)[C@@H]1C[C@H](CO)[C@@H](O)[C@H]1O,inactive
9,CCCn1ccnc1-c1c(-c2ccccc2)ncn1CCCC(=O)OC,"inconclusive: 79.4 µM [inhibitor, partial curve, poor fit]"
10,COc1ccc(Nc2cnc3ccc(-c4ccccc4OC)nn23)cc1,"inconclusive: 89.1 µM [inhibitor, partial curve]"
11,COc1ccc(OCc2cc(C(=O)NCCc3nc(C)c(C)s3)no2)c(Cl)c1,"inconclusive: 25.1 µM [inhibitor, partial curve]"
12,COc1ccc(CN[C@@H]2C=C[C@@H](c3c(C)nn(-c4ccccc4)c3C)C2)cc1,"inconclusive: 126 µM [inhibitor, single point]"
13,O=C(O)c1ccnc(-c2ccnc(NCCN3CCCCC3CO)n2)c1 (stereo not given),"inconclusive: 50.1 µM [inhibitor, partial curve]"
14,Cc1ccc(-c2cc(N3CCCN(C(=O)CCc4ccccc4)CC3)n[nH]2)cc1C,"inconclusive: 50.1 µM [inhibitor, partial curve, poor fit]"
15,CNc1ncncc1-c1nc(-c2ccccc2)no1,"inconclusive: 39.8 µM [inhibitor, partial curve]"
16,CC(C)N[C@H]1C[C@@H](Cc2cc(-c3ccccc3)on2)C1(C)C,"inconclusive: 126 µM [inhibitor, partial curve, poor fit]"
17,Fc1ccc(CNC[C@H]2Cn3c(-c4ccc5c(c4)OCCO5)cnc3CO2)cc1,inactive
18,CC1Oc2ccc(NC(=O)Nc3ccccc3)cc2CN(Cc2ccccc2)C1=O (stereo not given),"inconclusive: 44.7 µM [inhibitor, partial curve]"
19,O=C(c1ccc[nH]c1=O)N1CCC(n2cc(-c3nc(-c4ccccc4)no3)nn2)CC1,"inconclusive: 44.7 µM [inhibitor, partial curve, poor fit]"
20,O=C(NCCC1CCN(C(=O)Nc2cc(F)ccc2F)CC1)C1CC1,"inconclusive: 50.1 µM [inhibitor, partial curve]"
21,CC(=O)N1CCC(Cc2ncc(C)n2CC2CC2)C1 (stereo not given),inactive
22,CCOc1ccc(-c2cc3c(=O)n(CCNC(=O)c4cccc(N(C)C)c4)ccn3n2)cc1,active: 2.51 µM
23,COc1ccc(NC(=O)c2cc(NC(=O)C3CCC3)cc3nc(C)ccc23)cc1,"inconclusive: 14.1 µM [inhibitor, full curve]"

row,SMILES,Potency
1,COC1C(=O)N(C2CCN(C(=O)Nc3ccc4c(c3)OCCO4)CC2)C12CCOCC2 (stereo not given),"inconclusive: 44.7 µM [inhibitor, partial curve]"
2,O=C(c1cccs1)N1CCCn2cc(-c3ccc4c(c3)OCO4)nc21,active: 39.8 µM
3,COc1ccc(CCC(=O)N2CCC[C@H]2c2nc(-c3ccccc3Cl)no2)cc1,inactive
4,Cc1noc(-c2nc(-c3cccc(Cl)c3)no2)n1,"inconclusive: 35.5 µM [inhibitor, partial curve]"
5,CN(Cc1ccc(-c2ccccc2)cc1)C(=O)Cc1ccccn1,"inconclusive: 89.1 µM [inhibitor, partial curve]"
6,CC(C)C[C@@H]1N[C@H](C(=O)NC2CCCC2)Cc2cn(Cc3nccn3C)c3cccc1c23,inactive
7,CCc1cccc(NC(=O)N2CCc3nc4cc(-c5ccc(OC)cc5)[nH]n4c(=O)c3C2)c1,"inconclusive: 12.6 µM [inhibitor, partial curve]"
8,Cc1ccccc1Cn1cc(-c2ccncc2)cc1C(=O)Nc1ccc2c(c1)OCO2,"inconclusive: 44.7 µM [inhibitor, partial curve]"
9,Cn1nc(C(=O)N2CCCN(C(=O)C3CC3)C(c3ccccc3)CC(=O)NCC2)c2ccccc21 (stereo not given),inactive
10,c1c(-c2nc(C3CCOC3)no2)sc2c1CCCC2 (stereo not given),active: 0.631 µM
11,Cc1ccc(NC(=O)Cn2ccn3nc4c(c3c2=O)CCCCC4)c(C)c1,"inconclusive: 35.5 µM [inhibitor, partial curve]"
12,Cc1ccc(C(=O)Nc2cccc(-c3nnc4n3CCCC4)c2)cc1,"inconclusive: 39.8 µM [inhibitor, partial curve]"
13,COc1ccc(NC(=O)N[C@@H]2C=C[C@@H](c3c(C)nn(CCC#N)c3C)C2)cc1,inactive
14,COc1ccc(N2CCN(C(=O)CN3C(=O)C(c4ccccc4)=NC3(C)C)CC2)cc1,inactive
15,N#Cc1cccc(C(=O)N2CCC(n3cc(-c4nc(-c5ccccc5)no4)nn3)C2)c1 (stereo not given),"inconclusive: 89.1 µM [inhibitor, single point]"
16,Cn1nccc1C(=O)N1CCCN(Cc2ccncc2)C(c2ccccc2)CC(=O)NCC1 (stereo not given),inactive
17,Cc1nc(N2CCC(C(=O)NC3CCCCCCC3)CC2)cc(C(F)(F)F)n1,"inconclusive: 100 µM [inhibitor, single point]"
18,Cc1ccc(C(=O)N2CCc3sc(C(=O)NCc4cc(F)cc(F)c4)cc3C2)cc1,inactive
19,O=C(Cn1nc2c(cc1=O)CCCC2)NCc1nc2ccccc2[nH]1,inactive
20,COc1ccc(NC(=O)c2ccc3c(c2)OCC(=O)N(C)C3)c(F)c1,"inconclusive: 70.8 µM [inhibitor, partial curve]"
21,CCN(Cc1ccccc1)C(=O)CCC1CCN(S(=O)(=O)c2ccccc2)CC1,inactive
22,O=C(CN1CCCCCC1)N1CC(Oc2ccc(-c3noc(-c4ccccc4)n3)cc2)C1,"inconclusive: 14.1 µM [inhibitor, partial curve]"

# Source: PubChem BioAssay AID1347043 (National Center for Advancing Translational Sciences (NCATS), 2019)
